Reference: PubChem BioAssay AID504706 (National Center for Advancing Translational Sciences (NCATS), 2011)
The whole screen tested about 320,000 compounds, of which about 200 (0.062%) were called active. The inconclusive results got no clear call from the source; some entries with a clear call stand among them for comparison. The call rests on the fitted dose curve; in most records, active means well fitted activation curve with a large enough effect; inconclusive means small, poorly fitted or top-dose-only effect; inactive means no such curve, though single readings can be large or run the other way. No potency is given beside an inconclusive call; the fits are too rough.

Assay: qHTS assay for re-activators of p53 using a Luc reporter; further: nearly all actives have a fitted effect of over 45% in size
Settings: H1299 p53-A138V BP100-luciferase reporter, luminescence, 24 h; series mostly up to 92.2 µM
Summary of the method: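 H1299 (p53-null), stable ts p53-A138V + BP100-Luc; 1000 cells/well, Opti-MEM/10% FBS; cpd 4 pt, 1:5; 24 h, 37 deg C, 5% CO2; detection reagent 10 min RT; luminescence.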
Potency means the concentration at half of the fitted maximal effect; tags describe the fitted curve by direction and shape.

Row | Structure (SMILES) | Potency
1 | O=C(/C=C/c1cnc2ccccc2n1)NC1CCCCCC1 | inconclusive [activator, full curve, poor fit]
2 | Cc1ccccc1NC(=O)CN1C(=O)c2ccccc2C1=O | inactive
3 | COC(=O)n1c(=S)oc2cc(Cl)ccc21 | inactive
4 | CCOC(=O)CSC1=Nc2ccccc2C2=NC(CC(=O)NCc3cccs3)C(=O)N12 (stereo not drawn) | inconclusive [activator, single point]
5 | COc1ccc(OC)c(C(C)NC(=S)NC2CCCCC2)c1 (stereo not drawn) | inactive
6 | CCNC(=O)N1c2ccc(OC)cc2C(C)=CC1(C)C | inconclusive [activator, single point]
7 | CC(Sc1nc2ccccc2s1)C(=O)N1CCOCC1 (stereo not drawn) | inconclusive [activator, full curve, poor fit]
8 | COc1ccc2c(c1)C(=NO)c1cc(OC)ccc1-2 | inconclusive [activator, single point]
9 | CCOc1cc(CNCCCN2CCOCC2)cc(Br)c1OCC(=O)Nc1cccc(C(F)(F)F)c1 | inconclusive [activator, single point]
10 | O=C(CCC(=O)NNC(=O)c1ccccc1[N+](=O)[O-])NCc1ccccc1 | inconclusive [activator, single point]
11 | CCN(CC)c1ccc(C=C2C(=O)OC(C)(C(C)(C)C)OC2=O)cc1 (stereo not drawn) | inactive
12 | C=CCOc1c(Br)cc(CNCCCN2CCOCC2)cc1OC | inconclusive [activator, partial curve, poor fit]
13 | Cc1csc(NC(=O)CSc2nnnn2C)n1 | inconclusive [activator, full curve, poor fit]
14 | CCOC(=O)N1CCC(NC(=O)C2CCN(S(=O)(=O)N3CCCC3)CC2)CC1 | inconclusive [activator, full curve, poor fit]
15 | COCCN(C(=O)CSc1nnc(-c2ccc(C)cc2)n1N)c1c(N)n(Cc2ccccc2)c(=O)[nH]c1=O | inactive
16 | COc1ccccc1NC(=O)CSc1ccc(-c2ccccn2)nn1 | inconclusive [activator, single point]
17 | CCN(CC)CC(=O)N1c2ccccc2Sc2ccccc21 | inactive
18 | O=C(NCCN1CCOCC1)c1cc(-c2ccc(Cl)cc2Cl)on1 | inconclusive [activator, partial curve]
19 | O=C(Nc1sc2c(c1C(=O)O)CCCC2)c1cccs1 | inconclusive [activator, partial curve, poor fit]
20 | CCOC(=O)c1sc(NC(=O)c2cc3n(n2)C(C(F)(F)F)CC(c2ccccc2)N3)c(C(=O)OCC)c1C (stereo not drawn) | inactive
21 | c1ccc2c(SCc3cn4ccccc4n3)nncc2c1 | inconclusive [activator, partial curve, poor fit]
22 | CC(OC(=O)CNC(=O)c1ccc(F)cc1)C(=O)Nc1ccc(S(=O)(=O)N2CCOCC2)cc1 (stereo not drawn) | inactive
23 | OCCNc1nc(Nc2ccccc2)nc(Nc2ccccc2)n1 | inactive

Row | Structure (SMILES) | Potency
24 | CN(O)/C=N/C(=S)Nc1ccc(Cl)cc1Cl | inactive
25 | CSCC(=O)N1CCC(n2nccc2NC(=O)c2ccc3c(c2)OCO3)CC1 | inconclusive [activator, partial curve, poor fit]
26 | O=C(NCc1ccco1)c1ccc2ccccc2c1 | inconclusive [activator, full curve, poor fit]
27 | Cc1[nH]c(C)c2c(=O)n(-c3ccccc3)ncc12 | inconclusive [activator, full curve, poor fit]
28 | CC(C)(C)c1nc(-c2ccccc2)nc2c1OCCC2 | inconclusive [activator, single point]
29 | CC1=C(C#N)C(c2cccnc2)C2=C(CC(c3ccc(Cl)cc3)CC2=O)N1 (stereo not drawn) | inactive
30 | CCOc1ccc(S(=O)(=O)Nc2ccccc2C(=O)Nc2ccccc2N2CCOCC2)cc1 | inactive
31 | C#CC(C)(C)NC(=O)c1ccccc1OC | inconclusive [activator, partial curve, poor fit]
32 | CN(C)c1ccc(/C=C/C(=O)c2ccccc2)cc1[N+](=O)[O-] | inconclusive [activator, partial curve, poor fit]
33 | CCOc1ccccc1NC(=O)c1cc(-c2cc(OC)c(OC)c(OC)c2)nc2ccccc12 | inactive
34 | Cc1ccc2nc3c(cc(C(=O)NCC4CCCO4)n3C)c(=O)n2c1 (stereo not drawn) | inconclusive [activator, single point]
35 | CCCCn1c(N)c(N(CCOC)C(=O)c2ccc(Cl)c(S(=O)(=O)N3CCCCC3)c2)c(=O)[nH]c1=O | inactive
36 | CCOc1ccc2nc3cc(NCc4ccc(OC)cc4)ccc3c(N)c2c1 | inactive
37 | Cc1ccccc1Nc1nc(NCc2ccco2)c2ccccc2n1 | inconclusive [activator, partial curve, poor fit]
38 | N/C(=N\C(=S)Nc1ccccc1)c1ccccc1 | inconclusive [activator, full curve, poor fit]
39 | CN(c1ccc(C(=O)N2CCc3ccccc3C2)cc1)S(C)(=O)=O | inconclusive [activator, partial curve, poor fit]
40 | CC1CCCC(C)N1C(=O)CSc1nnnn1Cc1ccccc1 (stereo not drawn) | inconclusive [activator, single point]
41 | O=C(Nc1nccs1)c1cc2c(s1)-c1ccccc1OC2 | inactive
42 | Cc1c(C(=O)Nc2nccs2)oc2ccc(F)cc12 | inconclusive [activator, partial curve, poor fit]
43 | CC(=O)N1CCN(C(=O)c2cccc(S(=O)(=O)N3CCN(c4ccc(F)cc4)CC3)c2)CC1 | inactive
44 | O=C(Cn1c(/C=C/c2ccccc2)nc2ccccc21)Nc1ccc(F)cc1 | inconclusive [activator, full curve, poor fit]
45 | CCC(=O)Nc1ccc(C(=O)Nc2cccnc2)cc1 | inconclusive [activator, single point]
46 | O=C(Nc1nc(-c2ccccc2)cs1)c1ccc(N2CCOCC2)c([N+](=O)[O-])c1 | inconclusive [activator, single point]

Row | Structure (SMILES) | Potency
47 | Fc1ccccc1NC(=S)Nc1ccc(Br)cc1 | inconclusive [activator, partial curve, poor fit]
48 | COc1ccc(N2CCN(C3CCCN(Cc4cccc(C)c4)C3)CC2)cc1 (stereo not drawn) | inconclusive [activator, single point]
49 | COC(=O)C1=C(O)/C(=C\c2sccc2C)N=C1C | inconclusive [activator, partial curve, poor fit]
50 | COc1ccccc1NC(=O)CSc1n[nH]c(-c2ccccn2)n1 | inactive
51 | COc1ccc(Nc2cc(C)nc(N3CCOCC3)n2)cc1 | inactive
52 | NC(=O)C1CCN(C(=O)COCc2cc(-c3ccc4c(c3)OCO4)on2)CC1 | inconclusive [activator, partial curve, poor fit]
53 | N#Cc1ccccc1COC(=O)c1ccc2c(c1)OCCO2 | inconclusive [activator, partial curve, poor fit]
54 | c1ccc2oc(-c3ccc4nc[nH]c4c3)nc2c1 | inconclusive [activator, partial curve, poor fit]
55 | O=C(Nc1sc2c(c1C(=O)N1CCOCC1)CCCCC2)c1cccnc1 | inconclusive [activator, full curve, poor fit]
56 | Cc1ccc2c(c1)NC(=O)c1cccc([N+](=O)[O-])c1CO2 | inconclusive [activator, single point]
57 | COc1ccc(N=NC2=C(O)CC(C)(C)CC2=O)c(OC)c1 | inconclusive [activator, partial curve, poor fit]
58 | CC(Sc1nc(-c2ccccc2)cs1)C(=O)Nc1ccc(Cl)cn1 (stereo not drawn) | inconclusive [activator, single point]
59 | O=C(O)CCc1ccc(-c2ccccc2)n1Cc1ccco1 | inactive
60 | COc1ccc(Nc2oc(COc3ccccc3F)nc2C#N)cc1 | inconclusive [activator, partial curve, poor fit]
61 | CN1CCN(C(=O)CNC(=O)c2cccs2)CC1 | inconclusive [activator, partial curve, poor fit]
62 | Cn1c(N)c(C(=O)/C=C/c2ccccc2)c(=O)[nH]c1=O | inconclusive [activator, full curve, poor fit]
63 | O=C(NCCCc1ccccc1)c1ccccc1 | inconclusive [activator, partial curve, poor fit]
64 | CCN(CC(=O)Nc1c(F)cccc1F)C(=O)CNC(=O)c1ccc2ccccc2c1 | inconclusive [activator, partial curve]
65 | CN(C)CCNC(=S)Nc1ccc(-c2nc3ccccc3[nH]2)cc1 | inconclusive [activator, partial curve, poor fit]
66 | CC(C)c1ccc(C(=O)NNC(=O)C2CC=CCC2C(=O)O)cc1 (stereo not drawn) | inconclusive [activator, partial curve, poor fit]
67 | CCC(Cc1ccccc1)NC(=O)CSc1ccsc1[N+](=O)[O-] (stereo not drawn) | inconclusive [activator, single point]
68 | Cn1c(CN2CCCC2)nc2cc(NC(=O)c3cccs3)ccc21 | inconclusive [activator, full curve]
